# Reference: the supplement of paper PMC10338343
# ± gives the standard deviation. This is a selection; strong and weak results do not stand in their true shares.
# Assays:
# [1] = tested on: MIWI (PIWIL1) piRISC loaded with L1MC piRNA (30 nt); experiment: pre-steady-state target cleavage rate (min^-1); MIWI and MILI are mouse PIWI proteins and EfPiwi is from a freshwater sponge; tags in brackets are library labels; higher = faster piRNA-guided slicing of the target; details: guide: L1MC piRNA 5'p-UAACUAAAUACUAUGCAAGCUGUAGGUCCU
# Outline: (§1)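 The pre-steady-state cleavage rate was derived from a burst-and-steady-state fit of Cleave-'n-Seq data. For these assays, 1 nM active affinity-purified piRISC loaded with a single synthetic guide was mixed with […] a transcribed, DNA-blocked target RNA library in HEPES–potassium acetate buffer at 33 °C, with or without 500 nM GTSF1 partner protein, for 0–8 or 0–960 min. Sequencing counts of uncleaved targets were normalised to depth and to weakly complementary targets, and k3 was capped at 0.0001 min^-1 after three trials were pooled.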
# [2] = tested on: MIWI (PIWIL1) piRISC loaded with piRNA #1 (30 nt); experiment: as above; details: guide: piRNA #1 5'p-UGAGGUAGUAGGUUGUAUAGUAUCCAGAGG; auxiliary factor: 500 nM mouse GTSF1
# Outline: as §1
# [3] = auxiliary factor: 500 nM mouse GTSF1
# [4] = auxiliary factor: none (no GTSF1)
# 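Note: 1 nM active piRISC with 0.1 nM target library at 33 °C single turnover.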
sequence,measurement,setting,value
UCCUGCUACACCUUGCAAAGUAUUUAGUUA,pre-steady-state target cleavage rate,[1]; [3],0.692 ± 0.041
same,pre-steady-state target cleavage rate,[1]; [4],0.0318 ± 0.006
UCCUGGUACAGCUUGCUUAGUAUUUUGUUA,pre-steady-state target cleavage rate,[1]; [3],0.241 ± 0.042
same,pre-steady-state target cleavage rate,[1]; [4],0.019 ± 0.0045
UCCUGCUACAGCUUGCAUACUAUUUAGUAA,pre-steady-state target cleavage rate,[1]; [3],0.213 ± 0.031
same,pre-steady-state target cleavage rate,[1]; [4],0.0115 ± 0.0032
UCGACCUACAGCUUGCAUAGUAUUUAGUUG [g2:g28:cont:t1G],pre-steady-state target cleavage rate,[1]; [3],0.569 ± 0.04
same,pre-steady-state target cleavage rate,[1]; [4],0.0703 ± 0.013
AGGACCAACAGGUUGCAUAGUAUUUAGUUA,pre-steady-state target cleavage rate,[1]; [3],1.2 ± 0.058
same,pre-steady-state target cleavage rate,[1]; [4],0.0536 ± 0.0086
UCCUCCUACAGCUUGCAUACUAUUUACAAA,pre-steady-state target cleavage rate,[1]; [3],0.149 ± 0.025
same,pre-steady-state target cleavage rate,[1]; [4],0.00271 ± 0.0026
UCCUGGAUGUGCUCGCAUAGUAUUUAGUUA,pre-steady-state target cleavage rate,[1]; [3],0.3 ± 0.029
same,pre-steady-state target cleavage rate,[1]; [4],0.0185 ± 0.0045
AGUGACCUACAGCUUGCAUAGUAUUUAGUUA,pre-steady-state target cleavage rate,[1]; [3],1.38 ± 0.056
same,pre-steady-state target cleavage rate,[1]; [4],0.0885 ± 0.015
UCGACCUACAGACUUGCAUAGUAUUUAGUUA,pre-steady-state target cleavage rate,[1]; [3],1.06 ± 0.063
same,pre-steady-state target cleavage rate,[1]; [4],0.0588 ± 0.012
UCGACCUAAAGCUUGCAUAGUAUUUAGUUA,pre-steady-state target cleavage rate,[1]; [3],0.793 ± 0.029
same,pre-steady-state target cleavage rate,[1]; [4],0.0468 ± 0.0088
UCCUGCUACAGCUUGCAUAGUUUUAAGUUA,pre-steady-state target cleavage rate,[1]; [3],0.186 ± 0.022
same,pre-steady-state target cleavage rate,[1]; [4],0.0109 ± 0.0039
UCCACCUACAGCUUGCAUGUAUUUAGUUA,pre-steady-state target cleavage rate,[1]; [3],0.298 ± 0.025
same,pre-steady-state target cleavage rate,[1]; [4],0.00292 ± 0.0021
UGGUGGUACAGCUUGCAUAGUAUUUAGUAA,pre-steady-state target cleavage rate,[1]; [3],0.764 ± 0.042
same,pre-steady-state target cleavage rate,[1]; [4],0.0302 ± 0.0065
UCCUGGAUGAGCUUGGAUAGUAUUUUGUUA,pre-steady-state target cleavage rate,[1]; [3],0.531 ± 0.062
same,pre-steady-state target cleavage rate,[1]; [4],0.0196 ± 0.0065
GGAGUGGUUACUUUACAACCUACUACCUCA,pre-steady-state target cleavage rate,[2],1.39 ± 0.11
GCUCUGGAUACUAUACACCCUACUACCUCA,pre-steady-state target cleavage rate,[2],1.74 ± 0.11
GGAGUGGAUACUAUACAACCUACUACUUCA,pre-steady-state target cleavage rate,[2],0.959 ± 0.055
GGAGACCUUACUUUACAACCUACUAGCUCA,pre-steady-state target cleavage rate,[2],0.362 ± 0.047
GGUCUGGAUACUAUACAACCUACUACCUCA [g2:g28:cont:t1A],pre-steady-state target cleavage rate,[2],1.8 ± 0.1
GCUCUGGAUACUAUUCAACCUACUACGUCA,pre-steady-state target cleavage rate,[2],1.33 ± 0.087
GCUCUGGAUACUAUACAACCUACACCUCA,pre-steady-state target cleavage rate,[2],0.00765 ± 0.0038
GCUGUCGAUACUAUACAACCUACUACCUCA,pre-steady-state target cleavage rate,[2],1.7 ± 0.11
GCUCUGGAUACAUAUACAACCUACUACCUCA,pre-steady-state target cleavage rate,[2],1.54 ± 0.083
CCUCUGGAUACUAUAGAACCUACUACCACA,pre-steady-state target cleavage rate,[2],0.372 ± 0.042
GGAGACCUAUCUAUAUCAACCUACUACCUCA,pre-steady-state target cleavage rate,[2],0.00322 ± 0.0028
GGUCUGGAUACUAAUGAACCUACUACCUCA,pre-steady-state target cleavage rate,[2],0.173 ± 0.036
GGAGUGGACACUAUACAACCUACUACCUCA,pre-steady-state target cleavage rate,[2],1.67 ± 0.082
GGAGACGAUACUAUACUACCUACUAGCUCA,pre-steady-state target cleavage rate,[2],0.551 ± 0.051
GGUCUGGAUUCUAUACAUCCUACUACCUCA,pre-steady-state target cleavage rate,[2],1.5 ± 0.1
GGAGACGAUACUAUACAACCUACUACCUCCA,pre-steady-state target cleavage rate,[2],2.06 ± 0.12
GGUCAGGAUACUAUACAACCUACUACCUCA,pre-steady-state target cleavage rate,[2],1.69 ± 0.089
GGAGACCUAACUAUACAACCUACUUGCUCA,pre-steady-state target cleavage rate,[2],0.358 ± 0.07
GGAGACUAUACUAUACAACCUACUACCUCA,pre-steady-state target cleavage rate,[2],1.72 ± 0.12
GGAGACGAUACUAAACAACCUUCUACCUCA,pre-steady-state target cleavage rate,[2],0.518 ± 0.029
CCUCUGGAUACUAUACAAGCCUACUACCUCA,pre-steady-state target cleavage rate,[2],0.013 ± 0.006
CGUCUGGUUACUAUACAACCUACUACCUCA,pre-steady-state target cleavage rate,[2],1.48 ± 0.083
GGAGAGGAUACUAUACAACCUACUAACCUCA,pre-steady-state target cleavage rate,[2],1.01 ± 0.065
GGAGUGGAUACUAUAAACCUACUACCUCA,pre-steady-state target cleavage rate,[2],0.8 ± 0.094
GGAGACCAUACUAUACAACCACUACCUCA,pre-steady-state target cleavage rate,[2],0.00781 ± 0.0028
GGAGUGGAUACUAUACAUCCUACUACCUCA,pre-steady-state target cleavage rate,[2],1.18 ± 0.056
GGAGAGGAUACUAUACCAACCUACUACCUCA,pre-steady-state target cleavage rate,[2],0.0425 ± 0.012
GGAGUGGAUACUAUCCAACCUACUACCUCA,pre-steady-state target cleavage rate,[2],1.76 ± 0.11
GGAGACCUAUGAUAUGUUGGUACUACCUCU [g2:g10:cont:t1U],pre-steady-state target cleavage rate,[2],< 0.0001
GGACUGGAUAGAAUACAACCUACUACCUCA,pre-steady-state target cleavage rate,[2],0.508 ± 0.072
GGUCUGCAUACUAUACAACGUACUACCUCA,pre-steady-state target cleavage rate,[2],0.938 ± 0.065
GGACUGGAUACUAAACAACCUACUACCACA,pre-steady-state target cleavage rate,[2],0.639 ± 0.063
